PubChem BioAssay AID504332 (National Center for Advancing Translational Sciences (NCATS), 2011)
Among all 350,000 compounds or so, about 31,000 (8.9%) were called active. The shares of active, inactive and inconclusive entries below differ from those in the screen. Calls come from the whole dose curve; as a rule, active = well fitted inhibition curve with a large enough effect; inconclusive = small, poorly fitted or top-dose-only effect; inactive = no such curve, though single readings can be large or run the other way. Where the call is inconclusive, the potency comes from a doubtful curve fit.

Each molecule was assayed against Histone-lysine N-methyltransferase EHMT2 (Homo sapiens) (UniProt Q96KQ7) (assay: qHTS Assay for Inhibitors of Histone Lysine Methyltransferase G9a). Conditions: G9a H3K9 monomethylation, AlphaScreen, 2 h; activity, negative = inhibition: at 59 µM (top of the series) unless noted.
Sequence of UniProt Q96KQ7 (Q96KQ7 whole entry, looked up): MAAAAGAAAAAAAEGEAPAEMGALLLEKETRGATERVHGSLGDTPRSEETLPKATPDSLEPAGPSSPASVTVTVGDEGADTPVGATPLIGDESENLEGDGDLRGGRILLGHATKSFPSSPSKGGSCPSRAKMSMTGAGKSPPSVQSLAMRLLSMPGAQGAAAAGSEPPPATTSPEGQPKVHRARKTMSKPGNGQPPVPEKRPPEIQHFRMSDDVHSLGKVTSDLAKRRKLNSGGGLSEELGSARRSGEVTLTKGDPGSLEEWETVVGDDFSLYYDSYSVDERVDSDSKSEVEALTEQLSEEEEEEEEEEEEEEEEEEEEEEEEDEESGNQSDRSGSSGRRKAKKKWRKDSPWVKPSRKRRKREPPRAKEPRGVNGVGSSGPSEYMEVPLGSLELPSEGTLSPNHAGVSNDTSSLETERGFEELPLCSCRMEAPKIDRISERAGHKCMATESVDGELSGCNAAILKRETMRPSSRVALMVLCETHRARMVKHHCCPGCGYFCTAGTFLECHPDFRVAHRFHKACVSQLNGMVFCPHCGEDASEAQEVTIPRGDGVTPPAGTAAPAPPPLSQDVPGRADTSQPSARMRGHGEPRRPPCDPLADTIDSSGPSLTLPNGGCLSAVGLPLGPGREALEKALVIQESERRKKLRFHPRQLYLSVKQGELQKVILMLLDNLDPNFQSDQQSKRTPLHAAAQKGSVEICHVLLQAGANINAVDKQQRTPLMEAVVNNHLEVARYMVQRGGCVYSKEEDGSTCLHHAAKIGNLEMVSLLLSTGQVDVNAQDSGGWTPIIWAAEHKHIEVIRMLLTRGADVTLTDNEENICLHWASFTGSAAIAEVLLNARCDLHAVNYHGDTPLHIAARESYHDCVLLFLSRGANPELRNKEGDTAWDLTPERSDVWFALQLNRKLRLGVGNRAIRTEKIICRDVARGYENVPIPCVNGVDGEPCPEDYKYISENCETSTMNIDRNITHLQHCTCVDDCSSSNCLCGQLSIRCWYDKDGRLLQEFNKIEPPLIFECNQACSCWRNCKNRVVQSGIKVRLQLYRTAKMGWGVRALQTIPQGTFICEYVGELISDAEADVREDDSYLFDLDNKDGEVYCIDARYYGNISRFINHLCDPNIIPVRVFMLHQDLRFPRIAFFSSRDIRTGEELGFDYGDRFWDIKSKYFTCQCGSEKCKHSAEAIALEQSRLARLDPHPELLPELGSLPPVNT
How it was run: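 Signal arises when biotinylated H3K9 peptide, once monomethylated, bridges streptavidin donor and antibody-captured acceptor beads. Enzyme at 20 nM was preincubated 15 min with test compounds; peptide 500 nM and SAM 20 uM then reacted for 2 h.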
% is set by controls: 0 for no effect and ±100 for the full control effect; potency is the fitted concentration of half-maximal effect; tags give direction and shape of the fitted curve.
Note: nearly all actives have a fitted effect of over 75% in size.

Q: For Cc1ccc(CN2CCC(Oc3cccc(C(=O)NCc4cccnc4)c3)CC2)o1, which Potency is on record?
A: inconclusive: 89.1 µM [inhibitor, single point]

Q: With Cc1c(Cc2ccccc2)c(=O)oc2c(C)c(OCC(=O)N[C@@H](Cc3ccccc3)C(=O)O)ccc12 as the molecule, how does the Potency read?
A: inconclusive: 89.1 µM [inhibitor, single point]

Q: With CCOC(=O)N1CCN(S(=O)(=O)c2ccc(C(=O)N(CCCN(C)C)c3nc4ccc(Cl)cc4s3)cc2)CC1 as the molecule, how does the Potency read?
A: inconclusive: 79.4 µM [inhibitor, single point]

Q: Which Potency does the source give for Nc1ccc(Oc2ccc3c(c2)OCO3)cc1 here?
A: inconclusive: 10 µM [inhibitor, single point]

Q: With CCN1CCN(C(=O)c2ccc(Cl)c(S(=O)(=O)N3CCCCCC3)c2)CC1 as the molecule, how does the Potency read?
A: inconclusive: 28.2 µM [inhibitor, partial curve]

Q: COC(=O)c1c(NC(=O)COc2cccc(C(F)(F)F)c2)sc2c1CCCC2 was tested. Which Potency did it give?
A: active: 8.91 µM

Q: Which activity, negative = inhibition does the source give for Cc1ccccc1C(=O)N1CCC(C(=O)N2CCN(c3ncccn3)CC2)CC1 here?
A: inactive: 2.92% [at 2.33 µM]

Q: Which Potency does the source give for CCN(CC)C(=O)CSc1nc2ccccc2c(=O)n1CCC(=O)NCc1ccc(F)cc1 here?
A: inconclusive: 10 µM [inhibitor, partial curve, poor fit]

Q: Which Potency does the source give for Cc1ccc(/C=N/Nc2ccnc3cc(Cl)ccc23)c(C)c1 here?
A: inconclusive: 14.1 µM [inhibitor, single point]

Q: Cc1cc(N2C(=O)CC(N3CCN(C(c4ccccc4)c4ccccc4)CC3)C2=O)no1 (stereo not drawn) was tested. Which activity, negative = inhibition did it give?
A: inconclusive: -68.6% [inhibitor]

Q: Which activity, negative = inhibition does the source give for C=CCN1C=C2C(=O)C(C)(OC(=O)CCC(=O)OC)C(=O)C=C2C=C1C1CC1 (stereo not drawn) here?
A: inactive: 10.1% [at 12.7 µM]

Q: For Cc1c(C(=O)O)sc2nc3n(c(=O)c12)CCC3, which Potency is on record?
A: active: 39.8 µM

Q: With Cc1cc(NC(=O)CCC(=O)N(CC(=O)NC2CCCC2)c2ccccc2)no1 as the molecule, how does the “activity, negative = inhibition” value read?
A: inactive: 11.4%

Q: With COc1ccc(N2CCN(C(=O)c3cnn(-c4ccc(OC)cc4)c3C3CCN(C(=O)OC(C)(C)C)CC3)CC2)cc1 as the molecule, how does the Potency read?
A: active: 14.1 µM

Q: For OCCN(Cc1ccccc1)c1ncnc2sccc12, which “activity, negative = inhibition” value is on record?
A: inactive: -8.29% [at 102 µM]

Q: CC(=O)NC1=NN(C(C)=O)C(C)(CS(=O)(=O)c2ccc(Cl)cc2)S1 (stereo not drawn) was tested. Which Potency did it give?
A: inconclusive: 22.4 µM [inhibitor, single point]

Q: For O=[N+]([O-])c1ccc(-c2ccc(/C=N/c3c(-c4ccco4)nc4ccccn34)o2)c(Cl)c1, which activity, negative = inhibition is on record?
A: inconclusive: -74.8% [inhibitor]

Q: How did the “activity, negative = inhibition” value turn out when C[C@H](O)[C@@H]1C(=O)N2C(C(=O)O)=C(SCCN=CN)C[C@@H]12 was run?
A: inactive: 31.5% [at 21.5 µM]

Q: Cc1ccc(C(=O)O/N=C2\CCS(=O)(=O)c3sccc32)cc1 was tested. Which “activity, negative = inhibition” value did it give?
A: inactive: -2.34%

Q: For COc1ccccc1N1CCN(c2nc(C)nc3c2oc2ccccc23)CC1, which Potency is on record?
A: active: 39.8 µM

Q: Which Potency does the source give for CC(/C=C/c1ccccc1)=N\NC(N)=S here?
A: inconclusive: 20 µM [inhibitor, single point]

Q: With O=C(O)c1ccc(NC(CSCc2ccccc2F)C(=O)O)c([N+](=O)[O-])c1 (stereo not drawn) as the molecule, how does the Potency read?
A: inconclusive: 100 µM [inhibitor, single point]

Q: Which “activity, negative = inhibition” value does the source give for O=C1N/C(=C/c2cccs2)C(=O)N1Cc1ccc(Br)cc1 here?
A: inactive: 82.6% [at 102 µM]

Q: Which Potency does the source give for COCCNC(=S)Nc1cccc2cnccc12 here?
A: active: 50.1 µM

Q: CCCCOc1cccc(C(=O)N2CCN(CCc3ccncc3)CC2)c1 was tested. Which “activity, negative = inhibition” value did it give?
A: inactive: -0.811%

Q: How did the “activity, negative = inhibition” value turn out when O=C(NCCCN1CCOCC1)/C(=C/c1cccs1)NC(=O)c1ccccc1 was run?
A: inactive: 5.6%

Q: For O=C(O)c1cc(N/N=C/c2ccc(OCc3ccccc3)cc2)ccc1Cl, which Potency is on record?
A: active: 22.4 µM

Q: How did the Potency turn out when CN(C)c1ccc(C(CNS(=O)(=O)c2ccc(F)cc2F)N2CCOCC2)cc1 (stereo not drawn) was run?
A: inconclusive: 25.1 µM [inhibitor, single point]

Q: For COc1ccc(-c2csc(N=C(N)N)n2)cc1, which activity, negative = inhibition is on record?
A: inconclusive: -76% [inhibitor]

Q: With C#CCOCCOCCOCCNc1nc(N2CCN(C(=O)[C@H](CCC(=O)O)n3cc(C(N)CO)nn3)CC2)nc(N2CCN(C(=O)[C@H](CCC(=O)O)n3cc(C(N)CC(C)C)nn3)CC2)n1 (stereo partly drawn) as the molecule, how does the activity, negative = inhibition read?
A: inconclusive: -123% [inhibitor] [at 12.7 µM]

Q: Which Potency does the source give for Oc1ccccc1C1CC(c2cccs2)=NC(c2cccc(Br)c2)N1 (stereo not drawn) here?
A: inconclusive: 39.8 µM [inhibitor, partial curve, poor fit]

Q: For COc1ccc(OC)c(NC(=O)Cc2c(C(=O)O)n(C)c3ccccc23)c1, which Potency is on record?
A: inconclusive: 56.2 µM [inhibitor, partial curve, poor fit]

Q: With CS(=O)(=O)c1ccc(Cl)c(NC(=O)COC(=O)CCc2c[nH]c3ccccc23)c1 as the molecule, how does the Potency read?
A: inconclusive: 50.1 µM [inhibitor, partial curve]

Q: How did the Potency turn out when CCOc1ccccc1NC(=S)N(CCCN1CCOCC1)Cc1cn(C)c2ccccc12 was run?
A: inconclusive: 22.4 µM [inhibitor, single point]

Q: For Cc1ccc(/C=N/NC(=O)c2cc(-c3ccncc3)nc3ccccc23)o1, which Potency is on record?
A: active: 44.7 µM

Q: For CC(=O)Oc1ccc(C(=O)Cc2ccccn2)c(O)c1, which Potency is on record?
A: inconclusive: 22.4 µM [inhibitor, single point]

Q: How did the “activity, negative = inhibition” value turn out when CCc1nn(CC(=O)NCCOC)c(=O)c2cc3cc(F)ccc3n12 was run?
A: inactive: -32.1%

Q: How did the Potency turn out when COc1ccc(CCN(Cc2cc3cc(C)ccc3[nH]c2=O)C(=O)N2CCCC2)cc1OC was run?
A: inconclusive: 89.1 µM [inhibitor, single point]

Q: Which Potency does the source give for CCOc1ccc(OCCCCN2CCCC2)cc1 here?
A: inconclusive: 6.31 µM [inhibitor, single point]

Q: Which Potency does the source give for COc1ccc2c(Cl)c(-c3nnc(SCC(N)=O)n3C)sc2c1 here?
A: inconclusive: 79.4 µM [inhibitor, single point]

Q: With O=[N+]([O-])CC(=Nc1ccc(Cl)cc1)N/N=C\c1oc(O)c2ccccc12 as the molecule, how does the Potency read?
A: inconclusive: 12.6 µM [inhibitor, partial curve, poor fit]

Q: Which Potency does the source give for COC(=O)CSc1nc2ccc(N)cc2s1 here?
A: active: 17.8 µM

Q: How did the Potency turn out when O=C1CCCC/C1=C\Nc1ccc(S(=O)(=O)Nc2cnc3ccccc3n2)cc1 was run?
A: inconclusive: 89.1 µM [inhibitor, single point]

Q: How did the Potency turn out when CC(=O)N/C(=C\c1ccccc1)C(=O)OCC(=O)NC1CCCC1 was run?
A: inconclusive: 70.8 µM [inhibitor, single point]

Q: How did the “activity, negative = inhibition” value turn out when Cc1cc(C)n(S(=O)(=O)c2cccc([N+](=O)[O-])c2)n1 was run?
A: inactive: -7.95% [at 102 µM]

Q: For O=C(O)CCS(=O)(=O)c1nc(-c2cccs2)cc(C(F)(F)F)n1, which Potency is on record?
A: inconclusive: 25.1 µM [inhibitor, single point]

Q: How did the Potency turn out when Cc1cc(N2CCOCC2)nc2ccc(NC(=O)CCC(=O)N3CCC(C)CC3)cc12 was run?
A: inconclusive: 10 µM [inhibitor, partial curve, poor fit]

Q: With O=C1c2nccnc2C(=O)N1c1ccc(C(F)(F)F)cc1 as the molecule, how does the Potency read?
A: active: 50.1 µM

Q: With Cc1cc(C)nc(/N=c2/ssnc2Cl)c1 as the molecule, how does the Potency read?
A: active: 6.31 µM

Q: With COc1cc(NS(=O)(=O)c2cc(Br)cc3c2N(C(=O)C2CC2)CC3)cc(OC)c1 as the molecule, how does the “activity, negative = inhibition” value read?
A: inactive: -22.9%

Q: For O=P(C(=NCCO)NO)(N1CCOCC1)N1CCOCC1, which activity, negative = inhibition is on record?
A: inactive: 0% [at 0.501 µM]

Q: CCCCn1c(-c2cccnc2)nc2cc3[nH]c(=O)c(C(C)C)nc3cc21 was tested. Which Potency did it give?
A: inconclusive: 89.1 µM [inhibitor, single point]

Q: With O=C(NC(=S)Nc1c(Cl)ccc2nsnc12)c1ccco1 as the molecule, how does the Potency read?
A: inconclusive: 20 µM [inhibitor, single point]

Q: Which Potency does the source give for CC/C(=N\NC(=S)Nc1cc(C)ccc1C)c1ccc(OC(F)F)cc1 here?
A: active: 3.16 µM

Q: For COC(=O)/C=C1/S/C(=N/NC(=O)c2ccccc2C)NC1=O, which Potency is on record?
A: active: 2 µM

Q: With OCCN1CCN(c2nc(-c3ccccc3)c3cc(Br)ccc3n2)CC1 as the molecule, how does the “activity, negative = inhibition” value read?
A: inactive: -47.8% [at 102 µM]

Q: With CSc1cccc(NC(=S)N2CCC(N(C)C3CCCCC3)CC2)c1 as the molecule, how does the Potency read?
A: active: 50.1 µM

Q: COc1cccc(C(=O)CN2C3=NCCCN3c3ccccc32)c1 was tested. Which Potency did it give?
A: inconclusive: 89.1 µM [inhibitor, single point]

Q: With CC(=O)c1cccc(Nc2nc(-c3ccccc3)nc3ccccc23)c1 as the molecule, how does the Potency read?
A: active: 50.1 µM

Q: COc1ccc(OC)c(CNC(=O)CSc2c3c(nc4cc(Cl)ccc24)CCCC3)c1 was tested. Which “activity, negative = inhibition” value did it give?
A: inactive: 4.58%

Q: With Clc1cccc(OCCN2CCOCC2)c1 as the molecule, how does the Potency read?
A: active: 25.1 µM

Q: O=C(CCCn1c(=O)c2sccc2n(CC(=O)NCc2ccco2)c1=O)NCc1ccco1 was tested. Which Potency did it give?
A: inconclusive: 44.7 µM [inhibitor, partial curve]

Q: With COc1ccc(-c2cc(N3C(=O)Nc4ccccc4N3O)n[nH]2)c(OC)c1 as the molecule, how does the Potency read?
A: inconclusive: 44.7 µM [inhibitor, partial curve, poor fit]

Q: How did the “activity, negative = inhibition” value turn out when CC1CCN(C(=O)Cn2c(SCC(=O)Nc3ccc(F)cc3)nc3ccccc32)CC1 was run?
A: inactive: 24.3%

Q: Which activity, negative = inhibition does the source give for COc1ccc(CNc2nc(NCc3ccc(OC)cc3)n(S(C)(=O)=O)n2)cc1 here?
A: inactive: -9.7% [at 12.7 µM]

Q: How did the “activity, negative = inhibition” value turn out when CC(C)CCN1CCN(Cc2coc3ccccc3c2=O)CC1CCO (stereo not drawn) was run?
A: inactive: 11% [at 102 µM]

Q: For O=C(CSc1cn[nH]n1)Nc1nc2ccccc2s1, which Potency is on record?
A: active: 39.8 µM

Q: Cn1c(=O)cc(SCC(=O)N2CCN(Cc3ccc4c(c3)OCO4)CC2)c2ccccc21 was tested. Which Potency did it give?
A: inconclusive: 25.1 µM [inhibitor, partial curve, poor fit]

Q: With CCN1CCN(C(=O)c2ccc(Cn3c(=O)[nH]c4cc(OC)c(OC)cc4c3=O)cc2)CC1 as the molecule, how does the Potency read?
A: inconclusive: 79.4 µM [inhibitor, single point]

Q: Which Potency does the source give for S=c1[nH]nc(-c2cc(-c3ccsc3)n[nH]2)n1-c1cccc2ccccc12 here?
A: active: 8.91 µM

Q: With Cc1nc2c(C(=O)NCCc3ccc(Cl)cc3)cnn2c(C)c1Cc1ccc(F)cc1 as the molecule, how does the “activity, negative = inhibition” value read?
A: inactive: 3.05%

Q: Which “activity, negative = inhibition” value does the source give for CCC/C(O)=C1\C(=O)CCCC1=NCCCCCC(=O)O here?
A: inactive: 2.34% [at 102 µM]

Q: Cc1cc(Cl)c(S(=O)(=O)NC2CCCC2)cc1OCC(N)=O was tested. Which activity, negative = inhibition did it give?
A: inactive: 21.5% [at 12.7 µM]
